Experimental data from PubChem BioAssay (NCI).
Several values for one entry are separate records, joined by “and”; a condition that tells them apart may be missing. Equal entries are not always repeated.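 Results reflect a 48-hour exposure of cells in 96-well plates to compound at five concentrations. GI50: concentration for 50% inhibition of growth. TGI: concentration producing complete growth inhibition.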

Each compound was assayed on NCI-H322M lung (assay: DTP human tumour cell line panel, 48 h).

| SMILES | TGI | GI50 |
| --- | --- | --- |
| O=C1NC(Cc2ccc(O)cc2)C(=O)NC1Cc1ccc(O)cc1 (stereo not given) | > 100 µM |  |
| NC(=O)c1ccc(Oc2nccc(-c3c(-c4ccc(F)cc4)ncn3C3CCNCC3)n2)cc1 | > 25 µM | > 25 µM |
| CCN(CC)CCCC(C)Nc1cc(-c2cccc(OC(F)(F)F)c2)nc2ccc(N3CCCC3)cc12 (stereo not given) | > 100 µM | 0.452 µM |
| O=C(OCc1ccccc1)N1CCNCCNCCN(C(=O)OCc2ccccc2)CCNCC1 | 39.5 µM |  |
| O=C(O)c1ccccc1C1c2ccccc2Oc2ccccc21 | > 100 µM |  |
| COC1=CC(C2c3cc4c(cc3[C@@H](Nc3ccc(F)cc3)C3COC(=O)[C@H]23)OCO4)=CC(=O)C1=O (stereo not given in full) | > 92.7 µM |  |
| CC(=O)OC[C@H]1On2nnnc2[C@H](OC(C)=O)[C@@H](OC(C)=O)[C@@H]1OC(C)=O | > 100 µM |  |
| O=C(NCC(F)(F)F)Nc1cccc(-c2cnc3cc(-c4ccc(F)cc4)ccn23)c1 | > 69.4 µM | 4.5 µM |
| COc1ccc(/C=C/c2c(C(=O)/C=C/c3ccc(C(F)(F)F)cc3)c(C)nc3ccccc23)cc1 | 2.92 µM | 1.54 µM |
| COC(NC(=O)Nc1ccccc1C)(C(F)(F)F)C(F)(F)F | > 100 µM |  |
| COc1cc(/C=C/c2ccc(O)c(OC)c2)cc(OC)c1 | > 100 µM |  |
| N#Cc1ccccc1NC(=O)C(=O)C1NC(=S)NC1=O (stereo not given) | > 100 µM |  |
| Cc1cc(S(=O)(=O)/N=C(/NN)Nc2ccc(Cl)cc2)c(S)cc1Cl | 34.7 µM |  |
| COc1ccc(Oc2ccccc2N)cc1 | > 100 µM |  |
| O=C(/C=C/C=C/c1ccccc1)c1ccco1 | 58.8 µM | 19.6 µM |
| COC(=O)Cn1cnc2c(Cl)nc(Nc3ccccc3)nc21 | 71.9 µM |  |
| COc1ccc2oc3c(OC)c(OC)c(OC)cc3c(=O)c2c1 | > 100 µM |  |
| CCOC(=O)C(Cc1ccc(N(CCCl)CCCl)cc1)NC(=O)C(Cc1ccccc1)NC=O (stereo not given) | 0.554 µM |  |
| O=C1NC(N2CCOCC2)=N/C1=C\c1ccc(O)cc1 | > 100 µM |  |
| C1CN(c2nnc(N3CCC3)nn2)C1 | > 100 µM |  |
| CCCOC(=O)c1c(C)n(C)c2scc[n+]12 | > 100 µM | > 100 µM |
| N/C(=N\N=C\c1ncccc1O)NO | > 100 µM |  |
| Cn1c(=O)sc2cc(C(=S)N3CCCCC3)ccc21 | > 100 µM |  |
| COc1ccccc1S(=O)(=O)Nc1ccc2c3c(cc(CCC(=O)NCCCCNc4cccc5c4C(=O)N(C4CCC(=O)NC4=O)C5=O)cc13)C(=O)N2C (stereo not given) | > 100 µM | 0.415 µM |

| SMILES | TGI | GI50 |
| --- | --- | --- |
| Cc1c2ccncc2c(C)c2c1[nH]c1ccc(OCCN(C)C)cc12 | 0.384 µM |  |
| CN=C1C=CC(=C(c2ccc(N(C)C)cc2)c2ccc(N(C)C)cc2)C=C1 | 2.66 µM | 0.374 µM |
| COC(=O)Nc1nc2ccccc2[nH]1 | > 100 µM |  |
| Nc1c(S(=O)(=O)O)cc(S(=O)(=O)O)c2ccc(N=Nc3ccc(/C=C/c4ccc(N=Nc5ccc6c(S(=O)(=O)O)cc(S(=O)(=O)O)c(N)c6c5O)cc4S(=O)(=O)O)c(S(=O)(=O)O)c3)c(O)c12 | > 100 µM |  |
| CCN(CC)C(=O)CCN1CC1 | > 10 µM |  |
| CSc1nc2nc3c(nc2c(=O)n1C)C(=O)c1ccccc1C3=O | 0.706 µM | 0.132 µM |
| COc1ccc(-c2nc(-c3nc4ccc(C)cc4[nH]3)cc3c2[nH]c2ccccc23)cc1 | > 100 µM | 5.32 µM |
| NC(=O)CN1C=CCC(C(N)=O)=C1 | > 100 µM |  |
| c1ccc(OCCC[P+](c2ccccc2)(c2ccccc2)c2ccccc2)cc1 | 25.3 µM | 4.29 µM |
| CC1(C)C=C(/C=N/Nc2ccccc2)C(C#N)=C(O)C1(C#N)C#N | > 100 µM |  |
| CNCCCNc1nc2ccccc2c2c(=O)c3cc(OC)ccc3sc12 | 3.37 µM | 1.74 µM |
| CN(C)CC1CCC(CN(C)C)C(=O)C1=O (stereo not given) | 43.1 µM |  |
| CN(C)CC1CC/C(=C\c2ccc3c(c2)OCO3)C1=O (stereo not given) | 50 µM |  |
| CCOC(=O)CCC(C(=O)OCC)n1nnc2cc(Nc3c(C)[n+]([O-])c4cc(F)c(OCC)cc4[n+]3[O-])ccc21 (stereo not given) | > 100 µM |  |
| CC(C)N(Cc1ccc(CN(C(=O)CCl)C(C)C)cc1)C(=O)CCl | 7.26 µM | 2.36 µM |
| COc1ccccc1NC(=O)C1=C(C)NC(C)=C(C(=O)Nc2ccccc2OC)C1/C=C/c1ccccc1 | > 100 µM |  |
| O=c1[nH]c(=O)n(C2OC(CO)C(O)C2O)cc1OCCCc1ccccc1 (stereo not given) | > 100 µM |  |
| CC(C)c1cccc(C(C)C)c1N1C(=O)C(=O)C(c2nc3ccccc3o2)C(=O)C1=O | > 100 µM |  |
| CC1OC(=O)C(O)=C1O (stereo not given) | > 100 µM |  |
| CS(=O)(=O)OCCCNCCCOS(C)(=O)=O | 7060 µM |  |
| CC1CCC2(OC1)OC1C(O)C3C4CCC5CC(OC6OC(CO)C(OC7OC(CO)C(O)C(OC8OCC(O)C(O)C8O)C7OC7OC(CO)C(O)C(OC8OC(CO)C(O)C(O)C8O)C7O)C(O)C6O)C(O)CC5(C)C4CCC3(C)C1C2C (stereo not given) | 10.4 µM |  |
| CCCCCCCC1(c2ccc(N)cc2)CCC(=O)NC1=O (stereo not given) | > 100 µM |  |
| CN1Cc2ccccc2/C=C\c2ccccc21 | > 100 µM |  |
| Clc1ccc(C2=CCN3CC=C(c4ccc(Cl)cc4)C23)cc1 | 30.7 µM |  |

| SMILES | TGI | GI50 |
| --- | --- | --- |
| COc1cc(C2C3=C(COC3=O)N(CCO)c3cc4c(cc32)OCCO4)cc(OC)c1OC (stereo not given) | > 50 µM | 1.8 µM |
| C[C@H](C1CC2(C)OC2(C)C(=O)O1)[C@H]1CC[C@H]2[C@@H]3[C@@H]4O[C@@H]4[C@@]4(O)CC=CC(=O)[C@]4(C)[C@H]3CC[C@]12C (stereo not given in full) | > 50 µM |  |
| COc1ccc(-c2cc3c(C)nc(N)nc3n(C3CCC(OCCO)CC3)c2=O)cn1 (stereo not given) | 0.885 µM and 0.525 µM | 0.108 µM and 0.0604 µM |
| O=C1CSC(c2ccccc2Cl)N1c1nnc(Cn2cnnc2)o1 (stereo not given) | > 100 µM | 25.3 µM |
| Clc1cc(Cl)ncn1 | > 100 µM |  |
| O=C(O)c1cccc(NC(C(=O)c2ccccc2)c2ccccc2)c1 (stereo not given) | > 100 µM |  |
| O=C(O)/C=C\C(=O)Nn1c(Cc2ccc(Cl)cc2)n[nH]c1=O | > 100 µM |  |
| CCC[CH2][Sn]([CH2]CCC)([S]C#N)[S]C#N | 3.77 µM | 1.93 µM |
| O=C(NCCCc1cn[nH]c1)c1ccc(-c2ccncc2)c(C#Cc2ccc(F)cc2)c1 | > 100 µM | 23.5 µM |
| CCNc1cc2c3c(c1)CCN3CCC2 | > 10 µM |  |
| Cc1c([C@H](C)[C@@H]2NC[C@@H](C)C[C@H]2O)ccc2c1C[C@H]1[C@H]2CC=C2C[C@@H](O)CC[C@@]21C | 37.5 µM |  |
| O=C(Nc1ccccc1I(=O)=O)C1CCCCC1 | > 100 µM | > 100 µM |
| O=C(NNc1ccc(Cl)cc1)C1CCC(CNS(=O)(=O)c2ccccc2Cl)CC1 (stereo not given) | 51.6 µM | 11.1 µM |
| CS(=O)(=O)c1ccc(Nc2nc(N[C@H]3CCCC[C@H]3N)nc3cc[nH]c(=O)c23)cc1 | 9.91 µM | 2.72 µM |
| CCCCCC(O)C(O)CCC[C@H](O)[C@H]1CC[C@H]([C@H]2CC[C@H]([C@H](O)CCCCCCCCCCCCC3=C[C@H](C)OC3=O)O2)O1 (stereo not given in full) | 30 µM | 13.1 µM |
| O=C(CN(/C=C/C(=O)C(F)(F)F)c1ccc(Cl)cc1)c1ccc(Cl)c(Cl)c1 | 22.9 µM | 11 µM |
| O=[N+]([O-])/C(C(Cl)=C(Cl)Cl)=C(/Nc1cccc2cccnc12)n1nnc2ccccc21 | 48.4 µM |  |
| O=C(NC(=O)c1c(Cl)nc2sccn12)Nc1ccc(Cl)cc1 | > 100 µM |  |
| C#Cc1cccc(Nc2nc(Cl)nc3cc(NC(=O)CCl)ccc23)c1 | 6.69 µM | 3.44 µM |
| COC(=O)c1c(-c2cccs2)oc(-c2cccs2)c1C(=O)OC | > 100 µM | 55.8 µM |
| Cc1nc(Nc2ccccc2Cl)sc1C(=O)CC(=O)C(N)=O | > 100 µM |  |
| C=C1C(C)C2C(Cc3ccccc3)NC(=O)C23OC(=O)/C=C\CC(=O)CCC(C)C/C=C/C3C1O (stereo not given) | 21.6 µM |  |
